The values below come from PubChem BioAssay AID1159614 (National Center for Advancing Translational Sciences (NCATS), 2016).

Among all 45,000 compounds or so, about 65 (0.1%) were called active. The call rests on the fitted dose curve; in most records, active means well fitted activation curve with a large enough effect; inconclusive means small, poorly fitted or top-dose-only effect; inactive means no such curve, though single readings can be large or run the other way. This is one part of the list.

UniProt P54803, sequence (P54803 whole entry, looked up): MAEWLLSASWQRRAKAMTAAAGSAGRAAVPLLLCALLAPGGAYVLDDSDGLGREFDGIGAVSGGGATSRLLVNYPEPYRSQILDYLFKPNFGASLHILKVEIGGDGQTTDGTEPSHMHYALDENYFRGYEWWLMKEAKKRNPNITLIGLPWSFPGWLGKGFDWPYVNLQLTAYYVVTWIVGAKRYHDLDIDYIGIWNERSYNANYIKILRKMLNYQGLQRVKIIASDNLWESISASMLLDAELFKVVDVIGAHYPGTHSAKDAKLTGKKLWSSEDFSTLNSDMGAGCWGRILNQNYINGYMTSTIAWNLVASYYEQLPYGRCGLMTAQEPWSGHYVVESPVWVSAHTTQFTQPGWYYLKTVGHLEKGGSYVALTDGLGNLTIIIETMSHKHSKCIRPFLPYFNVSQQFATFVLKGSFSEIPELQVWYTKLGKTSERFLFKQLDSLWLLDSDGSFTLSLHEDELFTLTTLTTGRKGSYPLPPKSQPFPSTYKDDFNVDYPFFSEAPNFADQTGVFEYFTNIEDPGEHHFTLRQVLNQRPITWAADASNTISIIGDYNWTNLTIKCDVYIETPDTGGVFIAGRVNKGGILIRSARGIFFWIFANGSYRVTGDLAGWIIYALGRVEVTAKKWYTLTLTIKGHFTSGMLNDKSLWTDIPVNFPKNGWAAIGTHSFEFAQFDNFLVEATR

The test deals with Galactocerebrosidase (Homo sapiens) (UniProt P54803). Description: A Novel Cell-Based Assay to Identify Small Molecules for B -Galactocerebrosidase. Further: 0% is about no effect; nearly all actives have a fitted effect of over 65% in size. The following applies: 145M-Twi-hGALC-G270D cells (Twitcher mouse brain line with human GALC G270D), HMU-beta-Gal fluorescence, 48 h; series mostly up to 57.5 µM; activation: at the top concentration. In short, it runs like this:
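Fluorogenic HMU-b-Gal hydrolysis (0.1 mM final, pH 5.2 citrate-phosphate with 1 mg/mL sodium taurocholate; carbonate stop buffer) measures mutant GALC activity after compound treatment of live 145M-Twi Twitcher brain cells stably carrying human GALC-G270D, with wild-type GALC line alongside; activation sought.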
Take `CCOc1ccc(N(CC(=O)Nc2ccc3c(c2)OCO3)S(=O)(=O)c2ccccc2)cc1`: the “activation” value was inactive: -21.2%. To `CC(C)Sc1ncc(Cl)c(C(=O)Nc2c(C(=O)Nc3ccccc3)oc3ccccc23)n1` belongs inactive: -17.4%; to `Cc1ccccc1Nc1c(-c2ccccc2O)nc2sccn12`, inactive: -23.6%; to `Cc1nn(C)c2c1c(-c1ccccc1)cc(=O)n2Cc1c(F)cccc1Cl`, inactive: 6.05%. Turning to `O=C(c1cc(-c2ccc(Cl)cc2)on1)N(Cc1ccc(F)cc1)Cc1ccco1`, the “activation” value was inactive: -13.8%. Take `COc1cc(C2C(C(=O)Nc3ccc(C)cc3C)=C(C)Nc3nc(SCc4ccccc4)nn32)cc(OC)c1OC` (configuration not stated): the “activation” value was inactive: -14.5%. To `O=C1CN(C(=O)c2ccc(S(=O)(=O)N3CCCC3)cc2)C(c2ccc(F)cc2)c2cc(F)ccc2N1` (configuration not stated) belongs inactive: -22.3%; to `CCc1ccc(NS(=O)(=O)c2ccc3[nH]cc(C(=O)N4CCCCCC4)c(=O)c3c2)cc1`, inactive: -9.79%.

As to `CCc1cccc(NC(=O)c2sc3nc[nH]c(=O)c3c2C)c1`, the “activation” value was inactive: -15.1%. `COc1ccc(N(C(=O)c2ccc(C)cc2)S(=O)(=O)c2ccc(Cl)cc2)cc1`: the “activation” value was inactive: -1.95%. For the compound `CCOC(=O)Cc1ccc(NC(=O)N2CCC(CN3CCC(C)CC3)CC2)cc1`, the “activation” value was inactive: -13.9%. With `CCN(c1ccccc1)S(=O)(=O)c1nnc(NC(=O)C(C)Oc2ccccc2)s1` (configuration not stated), the “activation” value is inactive: -12.2%. For `CCOc1ccc(CCNC(=O)c2ccc(C)c(-n3c(C)nc4cccnc43)c2)cc1OCC`, the “activation” value was inactive: -11%.

On to `Cc1cccc(-c2nnc(SCC(=O)NC3CCCCC3)o2)c1`, for which the “activation” value was inactive: -14.4%. As for `Cc1ccc(CNC(=O)c2cnn3c(C)c(Cc4c(F)cccc4Cl)c(C)nc23)cc1`, the “activation” value was inactive: 14.1%. To `CCOc1ccc(C(=O)Nc2cc(-c3ccccc3)no2)cc1` belongs inactive: -12.8%; to `Cc1cc(Br)ccc1NC(=O)CN1C(=O)c2cccnc2Sc2ccccc21`, inactive: -5.48%; to `COc1ccc(N(Cc2cccs2)C(=O)COc2ccc([N+](=O)[O-])cc2)cc1`, inactive: -2.15%.

As for `CCOc1ccccc1NC(=O)c1cc2ccc3cccnc3c2[nH]1`, the “activation” value was inactive: 0.77%. With `CCN(Cc1ccccc1)C(=O)c1cc2ccc3cccnc3c2[nH]1`, the “activation” value is inactive: -11%. To `CCOC(=O)c1ccc(NC(=O)CSc2nc(C)c(Cc3ccccc3)c(=O)[nH]2)cc1` belongs inactive: -16%. Consider `Cc1ccc(-c2ccc(=O)n(CC(=O)Nc3ccc(C(C)C)cc3)n2)cc1`, for which the “activation” value is inactive: -6.45%. Consider `C=CCOc1ccc(C2c3c(oc4ccc(C)cc4c3=O)C(=O)N2CCCN2CCOCC2)cc1` (configuration not stated), for which the “activation” value is inactive: 10.4%. Turning to `Cc1ccc(Cn2ccn(Cc3cccc(C(F)(F)F)c3)c(=O)c2=O)cc1`, the “activation” value was inactive: -17.6%. For `COc1cccc(NC(=O)CSc2nc3c([nH]c4ccccc43)c(=O)n2-c2cccc(Cl)c2)c1`, the “activation” value is inactive: -18.1%. As for `O=C(Nc1ccc(F)c(Cl)c1)C1Cc2ccccc2CN1S(=O)(=O)c1ccc(F)cc1` (configuration not stated), the “activation” value was inactive: -4.67%. For `CCc1nn(CC(=O)Nc2ccc(C)cc2C)c(=O)c2cc3sccc3n12`, the “activation” value was inactive: -20.9%. For `COCCNC(=O)CCn1c(=O)c2cc(OC)c(OC)cc2n(CC(=O)Nc2ccccc2OC)c1=O` the value was inactive: 6.32%; for `COc1ccccc1NC(=O)c1c(C)cc(C)nc1SCC(=O)Nc1cccc(C)c1`, inactive: -14.7%; for `CCN(CC)CCOC(=O)c1ccc(NC(=O)CSc2cc(=O)n(CC)c3ccccc23)cc1`, inactive: -18.4%. To `CCc1cccc(CC)c1N(COC)C(=O)Cn1c(C)nc2ccccc21` belongs inactive: -21.5%; to `Cc1ccc(-n2nc(C)c3c(C)cc(=O)n(CC(=O)NC(C)C)c32)cc1`, inactive: -15.7%.

As for `CCCCn1c(SCC(=O)Nc2cccc(OC)c2)nc2ccsc2c1=O`, the “activation” value is inactive: 2.47%. To `Cc1ccc(NC(=O)c2cn(-c3ccccc3)nc2-c2ccccc2)cc1` belongs inactive: -35.1%. As for `COc1ccc(-n2cc(-c3ccccc3)c3c(NCc4cccc(Cl)c4)ncnc32)cc1`, the “activation” value was inactive: -6.18%. To `COc1cc(OC)c(NC(=O)c2cnn(-c3cccc(Cl)c3C)c2C2CCN(C(=O)OC(C)(C)C)CC2)cc1Cl` belongs inactive: -16.3%; to `O=C(NCc1ccccc1)c1ccc(NC(=O)N2CCSc3ncccc32)cc1`, inactive: 6.87%; to `COc1ccc(Nc2ncnc3onc(-c4ccc(Cl)cc4)c23)cc1Cl`, inactive: -9.21%. Take `CCOC(=O)c1c(NC(=O)COc2cccc(C)c2C)sc2c1CCCCC2`: the “activation” value is inactive: -6.18%.

For `CC(C)c1ccc(Nc2c(-c3ccc(N4CCOCC4)cc3)nc3ncccn23)cc1`, the “activation” value was inactive: 0.248%. As for `COc1ccc(NC(=O)C2CCC(CNS(=O)(=O)c3csc(C(N)=O)c3)CC2)cc1` (configuration not stated), the “activation” value is inactive: -3.17%.

With `COc1ccc(-c2cn3nc(N4CCC(C(=O)NCc5ccc(F)cc5)CC4)sc3n2)cc1`, the “activation” value is inactive: -4.59%. As to `Cc1ccc(C2=NN(CC(=O)NC(C)c3ccccc3)C(=O)CC2)cc1` (configuration not stated), the “activation” value was inactive: 0.391%.

As for `CCOC(=O)CNC(=O)c1cc2c(=O)n(CC)c3ccccc3c2s1`, the “activation” value is inactive: 1.61%. For `CCCOC(=O)c1ccc(NC(=O)Cn2nnc3sc4c(c3c2=O)CCC(C(C)(C)C)C4)cc1` (configuration not stated) the value was inactive: -0.736%; for `Cc1ccc(CNC(=O)CSc2ccc(-c3sc(-c4ccccc4)nc3C)nn2)cc1`, inactive: -4.22%. In the case of `COC(=O)c1cc2sc(C)cc2n1Cc1ccccc1`, the “activation” value was inactive: -24.2%.

With `COc1ccc(-c2onc(C)c2C)cc1S(=O)(=O)Nc1ccc(OC(F)(F)F)cc1`, the “activation” value is inactive: 5.9%. As for `CCOC(=O)c1cccc(NC(=O)c2cc(S(=O)(=O)N3CCCC3)cn2C)c1`, the “activation” value was inactive: 3.83%. Turning to `Cc1ccc(CSc2oc(-c3ccco3)nc2S(=O)(=O)c2ccc(Cl)cc2)cc1`, the “activation” value was inactive: -0.281%. For `CCCOc1ccc(-c2cccc(NS(=O)(=O)c3cccs3)c2)nn1` the value was inactive: -7.59%; for `O=C(Nc1cccc(C(F)(F)F)c1)c1cc2nc(-c3ccccc3)cc(C(F)(F)F)n2n1`, inactive: -1.99%. As to `O=S(=O)(c1ccc(Br)cc1)c1nc(-c2ccco2)oc1SCc1ccccc1F`, the “activation” value is inactive: -27.3%.

Take `CC(=O)c1cc(-c2ccc(F)cc2)n(CC(=O)NC2CCCCCC2)c1C`: the “activation” value was inactive: -17.3%. Regarding `CCCOc1ccc(/C=C/C(=O)Nc2sc3c(c2C(=O)OCC)CCC(C)C3)cc1OC` (configuration not stated), the “activation” value is inactive: -16.7%.

As for `COc1ccc(NC(=O)c2ccco2)cc1NC(=O)C(C)Oc1ccc(Cl)cc1Cl` (configuration not stated), the “activation” value is inactive: -14.7%. `CCOc1ccc(CCNC(=O)CN2C(=O)c3cccnc3Oc3ccc(C)cc32)cc1OCC`: the “activation” value is inactive: -7.19%. In the case of `Clc1ccc(N2CCN(Cc3nnc(-c4ccc5c(c4)OCO5)o3)CC2)cc1`, the “activation” value is inactive: -14.1%. In the case of `CN(C)CCOC(=O)C(c1ccccc1)C1(O)CCCC1` (configuration not stated), the “activation” value was inactive: -13.3%.

`COc1ccc(-c2cccc(NS(=O)(=O)c3cccs3)c2)nn1`: the “activation” value was inactive: -10.5%. To `CCOc1ccccc1CNC(=O)CCCn1c(=O)c2cccn2c2cccnc21` belongs inactive: 4.95%. As to `Cc1ccc2oc(-c3cccc(NC(=O)c4cccc5c(Br)cccc45)c3)nc2c1`, the “activation” value is inactive: -17.3%.

On to `O=C(CCCn1c(=O)c2cccn2c2ccccc21)Nc1cccc(Cl)c1`, for which the “activation” value was inactive: -18.8%. To `Clc1ccccc1CSc1nncn2c1cc1occc12` belongs inactive: -6.99%. For `COc1ccc(-c2cc(C)no2)cc1S(=O)(=O)N1CCN(c2ccc(C(C)=O)cc2)CC1` the value was inactive: -15.6%.

On to `CC(=O)N1c2ccccc2CC1C(=O)N1CCN(c2cccc(C)c2C)CC1` (configuration not stated), for which the “activation” value is inactive: -14.4%. Turning to `Cc1ccc2onc(CC(=O)N3CCN(c4ccccc4F)CC3)c2c1`, the “activation” value is inactive: -6.28%. For `CCc1cc(Cl)c(OC)c(C(=O)NC[C@@H]2CCCN2CC)c1O`, the “activation” value is inactive: -10.2%. For `COc1ccc(NC(=O)C2=C(C)Nc3c(C(=O)Nc4ccc(C)cc4)cnn3C2c2cccc(Cl)c2)cc1` (configuration not stated), the “activation” value was inactive: -10.7%. As to `CCCCN(CC)C(=O)c1c[nH]c2ccc(S(=O)(=O)Nc3cccc(OC)c3)cc2c1=O`, the “activation” value was inactive: -12.1%. Turning to `COc1ccc(NC(=O)CC2Nc3cccc4cccc(c34)NC2=O)cc1` (configuration not stated), the “activation” value is inactive: -8.88%.

As for `CCOC(=O)c1cnc2ccc(Cl)cc2c1Nc1ccc(OCC)cc1`, the “activation” value was inactive: -23.1%.

For `COc1ccc(Nc2cc(C(=O)NCCCN(C)Cc3ccccc3)c3ccccc3n2)cc1`, the “activation” value is inactive: 2.98%.

In the case of `CCOC(=O)c1ccc(NC(=O)CC2C(=O)N(c3ccc(F)cc3)C(=O)N2Cc2ccc(C)cc2)cc1` (configuration not stated), the “activation” value was inactive: -14.6%. For the compound `COc1ccc(C(=O)Nc2ccccc2-c2nc3ccccc3s2)c(OC)c1`, the “activation” value was inactive: -8.71%. On to `CCOc1cc(C2Sc3ccccc3NC3=C2C(=O)c2ccccc23)ccc1O` (configuration not stated), for which the “activation” value was inactive: -0.797%. To `CC(C)OCCCNC(=O)CSc1c2c(nc3ccc(Cl)cc13)CCCC2` belongs inactive: -2.97%; to `COc1cccc(-c2nc3c(c(SCC(=O)Nc4cc(C)ccc4C)n2)Cc2c(CO)cnc(C)c2O3)c1`, inactive: -6.52%. Turning to `Cc1cccn2c(=O)cc(COc3cccc(NC(=O)COc4ccccc4)c3)nc12`, the “activation” value is inactive: 8.47%. With `Cc1nc(-n2nc(C)c(CCC(C)C)c2C)sc1C(=O)Nc1ccc(Br)cc1`, the “activation” value is inactive: -7.92%. To `CC(=O)c1ccc(NC(=O)CCc2nc(-c3ccc(C)cc3)no2)cc1` belongs inactive: -41.6%. For `CC(=O)c1ccc(NC(=O)CSc2nc(C3CCCC3)nc3c2c(=O)n(C)c(=O)n3C)cc1`, the “activation” value was inactive: -9.29%.

`COc1ccc(CNC(=O)C2=C(C)C(=O)OC23CCN(C(C)=O)CC3)cc1`: the “activation” value was inactive: -2.86%. Regarding `CC1CCN(c2oc(-c3ccc(COc4ccc(Cl)cc4)o3)nc2C#N)CC1`, the “activation” value is inactive: -14.8%. For `CCCCOc1ccccc1C(=O)Nc1onc2c1CCCC2`, the “activation” value was inactive: -14.9%. With `CCOC(=O)N1CCc2c(sc3c2c(=O)n(Cc2ccccc2)c(=O)n3Cc2ccc(C)cc2)C1`, the “activation” value is inactive: 1.75%. Regarding `COc1ccc(CCNC(=O)CCCn2c(SCC(N)=O)nc3cc4c(cc3c2=O)OCO4)cc1OC`, the “activation” value was inactive: -34.8%. As to `CC(C)OC(=O)/C(C#N)=C/c1ccc(-c2ccc(Cl)c(Cl)c2)o1`, the “activation” value is inactive: -22.8%. Turning to `CCOc1ccccc1CNC(=O)c1ccc(Cn2c(SCc3ccccc3)nc3cccnc32)cc1`, the “activation” value is inactive: -20.2%. With `Cc1cc(C)c2nc(NC(=O)c3ccc(S(=O)(=O)N4CCC(C)CC4)cc3)sc2c1`, the “activation” value was inactive: -8.12%. Take `Fc1ccc(N2CCN(Cc3cccn3-c3nnc(N4CCN(C5CCCCC5)CC4)s3)CC2)cc1`: the “activation” value was inactive: -21%. For the compound `CCOC(=O)c1cc(-c2ccccc2)n(-c2cccc(C(=O)N(C)c3ccc(C)cc3)c2)c1C`, the “activation” value was inactive: -13.9%. `CCc1ccccc1NC(=O)c1cc2c(Cl)nc3ccccc3c2s1`: the “activation” value is inactive: -13.7%. For `Cc1ccc(NC(=O)C2CCCN(c3cnccn3)C2)c(C)c1` (configuration not stated) the value was inactive: -10.8%; for `CCCSc1nc2sc3c(c2c(=O)n1-c1cccc(Br)c1)CC(C)(C)OC3`, inactive: -5.57%. Take `Cc1ccccc1Cn1c(SCc2ccc(C(=O)NC3CCCC3)cc2)nc2ccncc21`: the “activation” value is inactive: -12.4%. Consider `CC(=O)Nc1ccc(Nc2ncnc3c2c(-c2ccccc2)cn3-c2ccc(C)c(Cl)c2)cc1`, for which the “activation” value is inactive: -8.83%.
